The values below come from US20250326835A1, “USE OF ANTI-CLAUDIN-1 ANTIBODIES TO TREAT CHOLANGIOCARCINOMA” (Alentis Therapeutics AG, priority 2022, published 2025).

The test system of one experiment is HuCC-T1 cells. In words: Transwell Matrigel invasion assay, HuCC-T1. The class given is cell-based, human. Particulars: HuCC-T1, 20 μg/mL for 3 days vs isotype control mAb; p=0.02. On the procedure: In an additional study, a transwell invasion assay was used to assess the effect of anti-CLDN1 mAb H3L3 treatment on cancer invasion. In this assay, EGI-1 or HuCC-T1 cells were seeded in 12 well plates and treated with 20 μg/mL isotype control mAb or with 20 μg/mL anti-CLDN1 mAb H3L3 (Colpitts et al., 67(4) Gut 736-745 (March 2017)) for 3 days. 0.5×10^5 cells were then seeded in transwells (8-μm pore polycarbonate membrane insert) in 24-well dishes with 75 μl Matrigel (Corning) and serum-free medium (1:20). Following solidification for 10 minutes in the incubator (37° C., 5% CO2), 600 μL of 1% serum-supplemented medium was added to the bottom wells. Non-invading cells were removed by scrubbing with cotton swabs, and invading cells were fixed using 70% ethanol and stained with crystal violet (0.2%) after 72 hours. Cells on the underside of the membranes were then visualized in 5 randomly selected fields and quantified using ImageJ. Each experiment was independently repeated at least three times.

For experiment [1], the system named is metastatic HuCC-T1 CCA cells. In words: CCA lung metastasis mouse model, intravenous HuCC-T1 cells, CK18 staining. The experiment is classed as in vivo. The settings on record: NRG mice, 25 mg/kg i.p. twice per week for 6 weeks vs PBS; p<0.05. Here is the method:
To assess the in vivo activity of the anti-CLDN1 mAb (H3L3) on invasion and metastasis, treatment with the anti-CLDN1 antibody was investigated in a state-of-the-art mouse model for CCA metastasis based on intravenous injection of metastatic HuCC-T1 CCA cells.
Non-Obese Diabetic Rag1^−/−IL2Rgc^−/− (NRG) mice were treated with anti-CLDN1 mAb H3L3 (Colpitts et al., 67(4) Gut 736-745 (March 2017)) (25 mg/kg i.p.), or vehicle control (PBS i.p.) 1 day before intravenous injection of 0.5×10^6 h HuCC-T1 cells through the retro-orbital vein. Mice were randomized into two groups and treated for 6 weeks with anti-CLDN1 mAb H3L3 (Colpitts et al., 67(4) Gut 736-745 (March 2017)) (25 mg/kg i.p. twice per week) or vehicle control (PBS i.p. twice per week). After 6 weeks, mice were sacrificed, lungs were harvested, and cytokeratin 18 (CK18) staining was used to identify and quantify CK18-positive cholangiocarcinoma metastasis in the lungs (FIG. 5A).

Experiment [2] concerns HuCC-T1 (intrahepatic CCA) cell line. The experiment in a line: HuCC-T1 cell line-derived xenograft (CDX) mouse model, tumor growth. The experiment is classed as in vivo. The settings on record: HuCC-T1 CDX NSG mice, 25 mg/kg i.p. once per week for 6 weeks vs PBS; p<0.05. The source says:
To assess the in vivo anti-tumorigenic activity of an anti-CLDN1 monoclonal (CLDN1 mAb H3L3) antibody in CCA, anti-CLDN1 mAb's effect on tumor growth was investigated in both intrahepatic CCA and extrahepatic CCA cell line-derived xenograft (CDX) mouse models.
Non-Obese Diabetic Rag1^−/−IL2Rgc^−/− (NRG) were subcutaneously injected with 5×10^6 cells of HuCC-A1 (intrahepatic CCA) or EGI-1 (extrahepatic CCA) cell line. Non-Obese Diabetic Prkdc^scidIL2Rg^−/− (NSG) were subcutaneously injected with 5×10^6 cells of the HuCC-T1 (intrahepatic CCA) cell line. When the average tumor volumes reached 40-50 mm^3, mice were randomized into two different groups and treated for 6 weeks with the anti-CLDN1 mAb H3L3 (25 mg/kg i.p. once per week), or with vehicle control (PBS i.p. once per week). Tumor growth was monitored using a digital caliper and tumor volume was calculated using the ½ (length×width^2) formula. (FIG. 2A).

Experiment [3] deals with patient-derived CCA tumor tissues. In words: CCA patient-derived xenograft (PDX) mouse model, tumor growth. The experiment is classed as in vivo. The settings on record: PDX NRG mice, 25 mg/kg i.p. once per week vs PBS; p<0.05. The text has this: On the other hand, molecular drivers and treatment responses strongly vary between different CCA subclasses and patients (Banales et al., 17 Nat Rev Gastroenterol Hepatol 557-588 (2020)). […] Thus, a PDX mouse model was established to evaluate the anti-CLDN1 mAb H3L3 anti-tumoral efficacy and response rate.
Non-Obese Diabetic Rag1^−/−IL2Rgc^−/− (NRG) were subcutaneously injected with fresh tumor tissues cut into small pieces (approximately 2-3 mm in diameter). When the average tumor volumes reached 40 mm^3, mice were randomized into two different groups and treated with the anti-CLDN1 mAb H3L3 (25 mg/kg i.p. once per week, n=10 mice), or with vehicle control (PBS i.p. once per week, n=11 mice). Tumor growth was monitored using a digital caliper and tumor volume was calculated using the ½(length×width^2) formula.
In general terms: A xenograft is tissue or cells of one species grown in another, often human tumour cells in immunodeficient mice.

B1: anti-CLDN1 mAb H3L3: humanized anti-Claudin-1 monoclonal antibody; heavy chain SEQ ID NO: 11, light chain SEQ ID NO: 12 (VH SEQ 13, VL SEQ 14) (antibody)
heavy: QVQLVESGGGVVQPGRSLRLSCLGSGFSFSSYGMNWVRQAPGKGLEWVASISPSGSYFYYADSVKGRFTISRDNSKNTLYLQMTSLRAEDTAIYYCARLPGFNPPFDHWGQGTLVTVSSASTKGPSVFPLAPSSKSTSGGTAALGCLVKDYFPEPVTVSWNSGALTSGVHTFPAVLQSSGLYSLSSVVTVPSSSLGTQTYICNVNHKPSNTKVDKRV[no letters for human IgG1 Fc]
light: DIQMTQSPSSLSASVGDRVTITCKASQNVGGNVDWYQWKPGKAPKLLIYGASNRYTGVPDRFRGSGSGTDFTLTISSLQPEDVATYYCLQYKNNPWTFGGGTKVEIKRTVAAPSVFIFPPSDEQLKSGTASVVCLLNNFYPREAKVQWKVDNALQSGNSQESVTEQDSKDSTYSLSSTLTLSKADYEKHKVYACEVTHQGLSSPVTKSFNRGEC
modifications: H3L3 Heavy Chain; H3L3 Light Chain
Take B1: the “number of invasive cells” value in the experiment with HuCC-T1 cells is “markedly and significantly decreased”. Besides, in experiment [1], the “CK18 positive area in lung sections” value is reported as “decrease” and the “metastasis formation in lungs” value is on record as “significantly reduced”. Moreover, the “tumor growth (tumor volume)” value in experiment [2] is on record as “delayed tumor growth”. For the same molecule, the “tumor growth (tumor volume)” value in experiment [3] is “markedly and significantly slowed tumor growth”.
